# Measured values reported in PubChem BioAssay (Tox21).
# Values joined by “and” are separate entries in the source; they are usually repeats but may differ in a detail not shown here. Identical values can stand only once. The shares of active, inactive and inconclusive entries below differ from those in the screen. For part of these data: Where the call is inconclusive, the potency comes from a doubtful curve fit. Active and inactive are the calls of the source. Unless noted, calls come from the whole dose curve; as a rule, active = well fitted curve in the direction sought with a large enough effect in the repeat runs; inconclusive = weak or mixed curves; inactive = no such curve, though single readings can be large; an effect the other way counts as inactive or inconclusive.
# Tests used:
# [1] = molecular target: Androgen receptor (Homo sapiens) (UniProt P10275); test: qHTS assay to identify small molecule antagonists of the androgen receptor (AR) signaling pathway (AID 743035; active = well fitted inhibition curve with a large enough effect in the signal ratio in the repeat runs, not every such curve was filed as active; inconclusive = weak or mixed curves, or effect the other way; inactive = no such curve, though single readings can be large or run the other way; the % refers to the signal ratio; for activity change, negative = inhibition: % is set by controls: 0 for no effect and ±100 for the full control effect); settings: HEK293 AR-UAS-bla, R1881-stimulated, beta-lactamase FRET, 16 h; activity change, negative = inhibition: at 58.5 µM (top of the series) unless noted
# UniProt P10275, sequence (P10275 whole entry, looked up): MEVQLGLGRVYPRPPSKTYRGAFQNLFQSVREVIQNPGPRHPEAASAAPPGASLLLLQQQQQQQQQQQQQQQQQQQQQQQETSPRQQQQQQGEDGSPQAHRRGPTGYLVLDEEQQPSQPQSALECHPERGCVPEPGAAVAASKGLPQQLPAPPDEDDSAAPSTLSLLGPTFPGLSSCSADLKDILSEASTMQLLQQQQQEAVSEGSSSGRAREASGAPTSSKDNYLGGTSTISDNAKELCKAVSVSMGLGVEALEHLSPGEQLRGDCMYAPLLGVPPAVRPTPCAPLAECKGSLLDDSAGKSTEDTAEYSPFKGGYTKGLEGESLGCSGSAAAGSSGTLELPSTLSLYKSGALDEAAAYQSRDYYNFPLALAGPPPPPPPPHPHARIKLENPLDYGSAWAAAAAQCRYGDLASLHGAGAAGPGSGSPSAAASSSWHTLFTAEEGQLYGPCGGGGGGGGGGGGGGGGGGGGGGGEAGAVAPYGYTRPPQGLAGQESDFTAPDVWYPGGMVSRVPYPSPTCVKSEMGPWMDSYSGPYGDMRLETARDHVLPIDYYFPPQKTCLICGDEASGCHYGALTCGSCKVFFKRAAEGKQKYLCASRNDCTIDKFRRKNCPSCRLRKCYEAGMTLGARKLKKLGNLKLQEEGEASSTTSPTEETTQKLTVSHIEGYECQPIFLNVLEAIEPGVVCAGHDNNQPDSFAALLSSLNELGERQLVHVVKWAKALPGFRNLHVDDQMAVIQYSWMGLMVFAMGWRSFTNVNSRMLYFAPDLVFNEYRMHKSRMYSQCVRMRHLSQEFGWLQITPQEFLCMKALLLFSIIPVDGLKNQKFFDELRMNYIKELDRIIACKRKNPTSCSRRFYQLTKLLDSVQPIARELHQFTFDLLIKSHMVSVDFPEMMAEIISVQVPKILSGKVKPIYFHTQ
# Outline: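 Cell line: GeneBLAzer AR-UAS-bla GripTite (HEK293). Stimulus: R1881 added after compound. Exposure: 16 h, 37C, 5% CO2. Readout: LiveBLAzer B/G FRET fluorescence after 2 h at room temperature.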
# [2] = molecular target: Androgen receptor (Homo sapiens) (UniProt P10275); test: qHTS assay to identify small molecule agonists of the androgen receptor (AR) signaling pathway (AID 743036; active = well fitted activation curve with a large enough effect in the signal ratio in the repeat runs, with a control signal flat, not every such curve was filed as active; inconclusive = weak or mixed curves, or effect the other way; inactive = no such curve, though single readings can be large or run the other way; the % refers to the signal ratio; for activation: % is set by controls: 0 for no effect and ±100 for the full control effect); settings: HEK293 AR-UAS-bla GripTite, beta-lactamase FRET ratio, 16 h; activation: at 62.4 µM (top of the series) unless noted
# Outline: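 Beta-lactamase under UAS control, stably integrated in HEK293 GripTite cells, reports receptor activation. After 16 h compound treatment, cells received FRET substrate for 2 h at room temperature before fluorescence reading.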
# [3] = qHTS assay to identify small molecule antagonists of the thyroid receptor (TR) signaling pathway - cell viability counter screen (AID 743064); settings: GH3.TRE-Luc viability, CellTiter-Fluor, 24 h; activity change, negative = cytotoxic: at 70.3 µM (top of the series); note: nearly all actives have a fitted effect of over 50% in size
# Outline: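 Compounds were tested on GH3.TRE-Luc cells in the presence of T3 at 1 nM final. Following 23.5 h at 37 °C, cell viability was quantified by CellTiter-Fluor.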
# [4] = molecular target: Estrogen receptor (Homo sapiens) (UniProt P03372); test: qHTS assay to identify small molecule antagonists of the estrogen receptor alpha (ER-alpha) signaling pathway (AID 743069; active = well fitted curve in the direction sought with a large enough effect in the signal ratio in the repeat runs, not every such curve was filed as active; inconclusive = weak or mixed curves, or effect the other way; inactive = no such curve, though single readings can be large or run the other way; the % refers to the signal ratio); settings: HEK293 ER-alpha-UAS-bla, beta-lactamase ratio, antagonist mode; activity, negative = inhibition: at 69.4 µM (top of the series)
# UniProt P03372, sequence (P03372 whole entry, looked up): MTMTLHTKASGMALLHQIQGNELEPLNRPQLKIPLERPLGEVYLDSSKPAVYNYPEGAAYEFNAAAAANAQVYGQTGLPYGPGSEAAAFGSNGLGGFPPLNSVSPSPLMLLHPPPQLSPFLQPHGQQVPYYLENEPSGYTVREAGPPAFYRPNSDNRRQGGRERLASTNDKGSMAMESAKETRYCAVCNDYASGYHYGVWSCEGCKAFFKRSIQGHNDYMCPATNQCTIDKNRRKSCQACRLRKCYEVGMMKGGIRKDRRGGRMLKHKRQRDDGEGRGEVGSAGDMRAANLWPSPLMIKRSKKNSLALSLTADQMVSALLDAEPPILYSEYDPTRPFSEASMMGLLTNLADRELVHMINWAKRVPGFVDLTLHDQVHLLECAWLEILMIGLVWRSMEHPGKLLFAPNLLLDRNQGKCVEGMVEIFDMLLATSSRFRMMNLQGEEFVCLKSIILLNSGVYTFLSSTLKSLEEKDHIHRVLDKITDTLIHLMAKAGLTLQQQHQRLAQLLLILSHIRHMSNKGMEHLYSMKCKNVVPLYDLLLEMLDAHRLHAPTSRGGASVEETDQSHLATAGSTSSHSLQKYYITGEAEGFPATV
# Outline: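 HEK293 ER-alpha-UAS-bla GripTite cells, held overnight in 2% charcoal-stripped FBS, 5,000 cells/well, preincubated 4 h, then compound plus 17beta-estradiol for 18 h at 37C. Beta-lactamase read by LiveBLAzer B/G FRET substrate, 2 h at room temperature.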
# [5] = qHTS assay to identify small molecule antagonists of the estrogen receptor alpha (ER-alpha) signaling pathway using the BG1 cell line (AID 743080; calls by dose curve;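 note: BG1 cells stimulated with 17beta-estradiol alongside compound; nearly all actives have a fitted effect of over 25% in size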; for activity change, negative = inhibition: % is set by controls: 0 for no effect and ±100 for the full control effect); settings: BG1Luc4E2 ERE-luciferase antagonist mode, luminescence; activity change, negative = inhibition: at 70.3 µM (top of the series) unless noted
# Outline: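 BG1-Luc-4E2 cells (endogenous full-length ER-alpha, stable 4×ERE-luciferase) were starved 5 days in phenol-red-free medium with 10% charcoal-stripped FBS, plated 24 h, then given compound plus 17beta-estradiol for 21.5 h at 37 C; ONE-Glo luminescence read after 30 min.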
# [6] = qHTS assay to identify aromatase inhibitors - cell viability counter screen (AID 743084);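 note: cells stimulated with testosterone during compound exposure; nearly all actives have a fitted effect of over 55% in size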
# [7] = molecular target: Androgen receptor (Homo sapiens) (UniProt P10275); test: qHTS assay to identify small molecule antagonists of the androgen receptor (AR) signaling pathway using the MDA cell line (AID 743042; note: nearly all actives have a fitted effect of over 55% in size)
# Outline: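 MDA-kb2 breast carcinoma cells carrying MMTV-luciferase (AR/GR responsive) were co-treated with compounds and the agonist R1881 for 16 h at 37C. Inhibition read as ONE-Glo luminescence; CellTiter-Fluor fluorescence measured in parallel for cytotoxicity.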
# [8] = qHTS assay to identify small molecule antagonists of the thyroid receptor (TR) signaling pathway (AID 743065); note: nearly all actives have a fitted effect of over 55% in size
# Outline: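 GH3.TRE-Luc rat pituitary cells (two TREs driving luciferase) were dosed with compound, then stimulated with 1 nM T3 (final) for 23.5 h at 37 C. ONE-Glo luminescence was the read-out, with CellTiter-Fluor fluorescence as the cytotoxicity counter-screen.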
# [9] = qHTS assay to identify small molecule antagonists of the estrogen receptor alpha (ER-alpha) signaling pathway - cell viability counter screen (AID 743074; calls by dose curve;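 note: HEK293 cells carrying ER-alpha-UAS-bla reporter stimulated with 17beta-estradiol; nearly all actives have a fitted effect of over 45% in size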)
# [10] = molecular target: Estrogen receptor (Homo sapiens) (UniProt P03372); test: qHTS assay to identify small molecule agonists of the estrogen receptor alpha (ER-alpha) signaling pathway using the BG1 cell line (AID 743079); settings: BG1Luc4E2 cells, ERE-luciferase agonist, 22 h; activation: at 70.3 µM (top of the series) unless noted; note: nearly all actives have a fitted effect of over 20% in size
# [11] = qHTS assay to identify small molecule antagonists of the estrogen receptor alpha (ER-alpha) signaling pathway using the BG1 cell line - cell viability counter screen (AID 743081);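 note: compound given together with 17beta-estradiol as the ER stimulus; nearly all actives have a fitted effect of over 45% in size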
# [12] = molecular target: Aryl hydrocarbon receptor (Homo sapiens) (UniProt P35869); test: qHTS assay to identify small molecule that activate the aryl hydrocarbon receptor (AhR) signaling pathway (AID 743085); note: nearly all actives have a fitted effect of over 15% in size
# UniProt P35869, sequence (P35869 whole entry, looked up): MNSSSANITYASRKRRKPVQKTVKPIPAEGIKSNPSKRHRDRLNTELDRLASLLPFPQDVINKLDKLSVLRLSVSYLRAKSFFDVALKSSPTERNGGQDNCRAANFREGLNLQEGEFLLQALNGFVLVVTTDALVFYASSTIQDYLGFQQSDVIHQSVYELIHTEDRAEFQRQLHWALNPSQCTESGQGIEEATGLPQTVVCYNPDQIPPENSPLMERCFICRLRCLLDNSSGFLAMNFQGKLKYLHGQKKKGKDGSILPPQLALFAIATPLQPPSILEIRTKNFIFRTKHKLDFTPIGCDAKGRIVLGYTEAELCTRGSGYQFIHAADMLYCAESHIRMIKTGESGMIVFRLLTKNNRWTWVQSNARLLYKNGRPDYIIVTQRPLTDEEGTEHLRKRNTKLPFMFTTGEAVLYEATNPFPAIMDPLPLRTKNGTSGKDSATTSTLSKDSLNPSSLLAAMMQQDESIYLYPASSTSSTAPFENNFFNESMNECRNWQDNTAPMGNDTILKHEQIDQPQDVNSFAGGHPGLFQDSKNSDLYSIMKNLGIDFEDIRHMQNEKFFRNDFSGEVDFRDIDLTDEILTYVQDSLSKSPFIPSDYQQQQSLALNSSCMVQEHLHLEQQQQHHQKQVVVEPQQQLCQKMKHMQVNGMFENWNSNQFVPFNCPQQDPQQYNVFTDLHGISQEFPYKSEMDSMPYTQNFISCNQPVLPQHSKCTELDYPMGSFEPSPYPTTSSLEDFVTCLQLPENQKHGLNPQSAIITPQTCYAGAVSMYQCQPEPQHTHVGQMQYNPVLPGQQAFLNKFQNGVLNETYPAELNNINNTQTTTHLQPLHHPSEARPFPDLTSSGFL
# Outline: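 24 h compound exposure, 37C, HepG2-derived HG2L7.5c1 cells with DRE-responsive luciferase. Readouts: fluorescence viability, then luminescence at room temperature after 30 min.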
# [13] = qHTS assay to identify small molecule that activate the aryl hydrocarbon receptor (AhR) signaling pathway - cell viability counter screen (AID 743086); note: nearly all actives have a fitted effect of over 45% in size
# Outline: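 HepG2-AhR-luc (HG2L7.5c1) cells, 4000/well, treated 24 h at 37 C with compound; viability measured as CellTiter-Fluor fluorescence after 30 min in the same wells as the luciferase read.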
# [14] = molecular target: Peroxisome proliferator-activated receptor gamma (Homo sapiens) (UniProt P37231); test: qHTS assay to identify small molecule antagonists of the peroxisome proliferator-activated receptor gamma (PPARg) signaling pathway (AID 743191; calls by dose curve; note: nearly all actives have a fitted effect of over 30% in size; for ratio activity, negative = inhibition: % is set by controls: 0 for no effect and ±100 for the full control effect); settings: HEK293H PPARg-UAS-bla, beta-lactamase ratio, antagonist, 17 h; ratio activity, negative = inhibition: at 62.6 µM (top of the series) unless noted
# UniProt P37231, sequence (P37231 whole entry, looked up): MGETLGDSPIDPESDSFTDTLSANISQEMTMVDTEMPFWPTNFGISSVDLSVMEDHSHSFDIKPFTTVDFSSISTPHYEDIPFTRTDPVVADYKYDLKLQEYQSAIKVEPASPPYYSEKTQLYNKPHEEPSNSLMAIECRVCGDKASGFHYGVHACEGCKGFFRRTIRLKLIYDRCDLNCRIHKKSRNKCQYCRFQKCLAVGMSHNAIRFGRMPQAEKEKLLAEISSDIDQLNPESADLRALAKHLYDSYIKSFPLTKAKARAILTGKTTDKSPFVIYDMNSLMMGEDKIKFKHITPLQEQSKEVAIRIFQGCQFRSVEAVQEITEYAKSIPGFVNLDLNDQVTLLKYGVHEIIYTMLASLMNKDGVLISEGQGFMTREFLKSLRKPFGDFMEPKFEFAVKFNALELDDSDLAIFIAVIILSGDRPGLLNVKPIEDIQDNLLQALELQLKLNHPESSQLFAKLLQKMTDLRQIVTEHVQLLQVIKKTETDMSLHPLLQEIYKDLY
# Outline: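 GeneBLAzer PPARg UAS-bla HEK293H cells, 5 h post-plating, exposed to compounds 17 h at 37C. LiveBLAzer B/G FRET substrate added for 1 h at room temperature; beta-lactamase reporter read by fluorescence intensity.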
# [15] = molecular target: Peroxisome proliferator-activated receptor gamma (Homo sapiens) (UniProt P37231); test: qHTS assay to identify small molecule agonists of the peroxisome proliferator-activated receptor gamma (PPARg) signaling pathway (AID 743094; active = well fitted activation curve with a large enough effect in the signal ratio in the repeat runs, not every such curve was filed as active; inconclusive = weak or mixed curves, or effect the other way; inactive = no such curve, though single readings can be large or run the other way; the % refers to the signal ratio); settings: HEK293H PPARg-UAS-bla, beta-lactamase FRET ratio, 17 h; activation: at 57 µM (top of the series) unless noted
# Outline: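 Stably transfected HEK293H cells (GeneBLAzer PPARg UAS-bla) were incubated with test substances for 17 h at 37C after a 5 h pre-incubation; beta-lactamase activity was then detected by FRET substrate fluorescence.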
# [16] = molecular target: Estrogen receptor (Homo sapiens) (UniProt P03372); test: qHTS assay to identify small molecule agonists of the estrogen receptor alpha (ER-alpha) signaling pathway (AID 743075; calls by dose curve); settings: HEK293 ER-alpha-UAS-bla, beta-lactamase FRET ratio, 18 h; activation: at 70.1 µM (top of the series)
# Potency is the fitted concentration of half-maximal effect; tags give direction and shape of the fitted curve or compound fluorescence and quenching.
structure (smiles),measurement,setting,value
CC[C@H]1C[C@@H]2C[C@H]3c4[nH]c5ccc(OC)cc5c4CCN(C2)[C@@H]13,"activity change, negative = inhibition",[1],inconclusive: 27.9%
same,Potency,[2],inactive
same,Potency,[3],active: 60.1 µM
same,Potency,[4],"inconclusive: 12.1 µM [cytotoxic, partial curve, poor fit]"
same,Potency,[5],inactive
same,Potency,[6],inactive
O=[N+]([O-])c1ccc(O)c([N+](=O)[O-])c1,Potency,[1],"inconclusive: 4.38 µM [rising, full curve] and inconclusive: 15.5 µM [rising, full curve]"
same,Potency,[7],"inconclusive: 68.9 µM [inhibitor, single point] and active: 61.1 µM"
same,Potency,[3],inconclusive: 54.7 µM [cytotoxic] and active: 61.1 µM
same,Potency,[8],"inconclusive: 68.9 µM [inhibitor, single point] and inconclusive: 68.6 µM [inhibitor, single point]"
same,Potency,[4],"inconclusive: 11 µM [activator, full curve]"
same,Potency,[9],"inconclusive: 9.81 µM [cytotoxic, full curve] and inconclusive: 21.9 µM [cytotoxic, partial curve]"
same,Potency,[10],"inconclusive: 61.4 µM [inhibitor] and inconclusive: 30.6 µM [inhibitor, partial curve]"
same,Potency,[5],"inconclusive: 54.7 µM [falling, partial curve] and inconclusive: 61.1 µM [falling, partial curve]"
same,Potency,[11],active: 30.8 µM and active: 30.6 µM
same,Potency,[6],"inconclusive: 30.6 µM [cytotoxic, partial curve]"
same,Potency,[12],active: 24.4 µM
same,Potency,[13],"inconclusive: 17.2 µM [falling, full curve]"
same,"ratio activity, negative = inhibition",[14],inconclusive: 11.1%
COc1cc(OC)c(OC)cc1C=O,"activity change, negative = inhibition",[1],inconclusive: -20.9%
same,Potency,[2],"inconclusive: 0.189 µM [activator, single point]"
same,Potency,[7],"inconclusive: 33.3 µM [inhibitor, partial curve]"
same,Potency,[3],"inconclusive: 14.9 µM [rising, full curve]"
same,Potency,[4],"inconclusive: 2.38 µM [activator, full curve]"
same,Potency,[9],inconclusive: 59.8 µM [cytotoxic]
same,Potency,[11],inactive
same,Potency,[6],active: 59.3 µM
same,Potency,[15],"inconclusive: 59.8 µM [falling, partial curve, poor fit]"
same,"ratio activity, negative = inhibition",[14],inconclusive: 16.7%
c1cc(OCC2CO2)ccc1Cc1ccc(OCC2CO2)cc1 (stereo not given),Potency,[1],inactive
same,activation,[2],inconclusive: -4.43%
same,Potency,[7],inactive
same,Potency,[3],active: 43.5 µM and active: 48.6 µM
same,Potency,[4],"inconclusive: 61.9 µM [fluorescent, partial curve, poor fit] and inconclusive: 54.9 µM [activator, partial curve]"
same,Potency,[9],inactive
same,Potency,[16],inconclusive: 54.9 µM [fluorescent]
same,Potency,[10],inactive
same,Potency,[6],"inconclusive: 68.9 µM [cytotoxic, single point] and inconclusive: 77 µM [cytotoxic, partial curve, poor fit]"
same,Potency,[14],inconclusive: 49.2 µM [partial curve] and inconclusive: 49 µM
O=C(NC(=O)c1c(F)cccc1F)Nc1cc(Cl)c(OC(F)(F)C(F)F)c(Cl)c1,"activity change, negative = inhibition",[1],inconclusive: 6.4%
same,Potency,[2],inconclusive: 54.9 µM [activator]
same,Potency,[10],"inconclusive: 17.2 µM [activator, full curve, poor fit]"
same,Potency,[5],"inconclusive: 3.06 µM [rising, full curve]"
same,Potency,[11],inactive
same,activation,[15],inconclusive: 16.4%
same,Potency,[14],inactive
COC1=CC(=O)O[C@@H](CCc2ccccc2)C1,"activity change, negative = inhibition",[1],inconclusive: -20.5% [at 78.9 µM]
same,Potency,[2],"inconclusive: 18.1 µM [rising, partial curve, poor fit]"
same,Potency,[6],"inconclusive: 25.3 µM [rising, partial curve]"
same,activation,[15],inconclusive: 0.69% [at 78.9 µM]
same,"ratio activity, negative = inhibition",[14],inconclusive: -21.4% [at 81.1 µM]
O=S1OC[C@@H]2[C@H](CO1)[C@]1(Cl)C(Cl)=C(Cl)[C@@]2(Cl)C1(Cl)Cl (stereo not given in full),Potency,[1],"inconclusive: 54.9 µM [falling, single point]"
same,Potency,[7],"inconclusive: 68.6 µM [inhibitor, single point]"
same,Potency,[3],"inconclusive: 68.6 µM [cytotoxic, single point]"
same,Potency,[8],"inconclusive: 68.6 µM [inhibitor, single point]"
same,Potency,[4],inconclusive: 54.9 µM
same,activation,[10],inconclusive: -11.3% [phenotype inactive]
same,"activity change, negative = inhibition",[5],inconclusive: -17.4%
same,Potency,[6],"inconclusive: 68.6 µM [cytotoxic, single point]"
same,Potency,[14],inactive
